From article PMC9307175
No constants are given. Whether binding was seen depends on the method and setting. For some assays here: Binding seen in cells or lysates may run through a third protein. Some results given as binding are weak or reduced against the parent protein; the word gives no strength.

Assays:
[1] = biological target: chitin-binding domain (CBD)-tagged IRF9 (human (HeLa cDNA library)) (UniProt Q00978); test: co-IP
[2] = biological target: S-peptide-tagged JAK1 (UniProt P23458); test: co-IP
[3] = biological target: IRF9-Flag/STAT2-CBD complexes isolated by Flag IP and chitin AP from IFNβ-treated transfected 293T cells (human | human (HeLa cDNA library)) (UniProt Q00978); test: co-IP
[4] = biological target: STAT1-Flag/IRF9-CBD complexes (ISGF3) isolated by Flag IP and chitin AP from IFNβ-treated transfected 293T cells (human | human (HeLa cDNA library) | human (endogenous in 293T)) (UniProt P42224); test: co-IP
[5] = biological target: Flag-tagged IRF9 (pCEBZ-IRF9-SF) (human) (UniProt Q00978); test: co-IP
[6] = biological target: S-peptide-tagged TYK2 (UniProt P29597); test: co-IP
[7] = biological target: chitin-binding domain (CBD)-tagged STAT2 (human (HeLa cDNA library)) (UniProt P52630); test: co-IP
[8] = biological target: STAT1-Flag/STAT2-CBD complexes isolated by Flag IP and chitin AP from IFNβ-treated transfected 293T cells (human | human (HeLa cDNA library)) (UniProt P42224); test: co-IP
[9] = biological target: Flag-tagged STAT1 (pCEBZ-STAT1-SF) (human) (UniProt P42224); test: co-IP
[10] = biological target: chitin-binding domain (CBD)-tagged IFNAR1 (human (HeLa cDNA library)) (UniProt P17181); test: co-IP
[11] = biological target: STAT2, endogenous in iBCBL-1 cells (human (endogenous in iBCBL-1)) (UniProt P52630); test: co-IP
[12] = biological target: T1, IRF9, endogenous in iBCBL-1 cells (human (endogenous in iBCBL-1)) (UniProt Q00978); test: co-IP
T1 sequence: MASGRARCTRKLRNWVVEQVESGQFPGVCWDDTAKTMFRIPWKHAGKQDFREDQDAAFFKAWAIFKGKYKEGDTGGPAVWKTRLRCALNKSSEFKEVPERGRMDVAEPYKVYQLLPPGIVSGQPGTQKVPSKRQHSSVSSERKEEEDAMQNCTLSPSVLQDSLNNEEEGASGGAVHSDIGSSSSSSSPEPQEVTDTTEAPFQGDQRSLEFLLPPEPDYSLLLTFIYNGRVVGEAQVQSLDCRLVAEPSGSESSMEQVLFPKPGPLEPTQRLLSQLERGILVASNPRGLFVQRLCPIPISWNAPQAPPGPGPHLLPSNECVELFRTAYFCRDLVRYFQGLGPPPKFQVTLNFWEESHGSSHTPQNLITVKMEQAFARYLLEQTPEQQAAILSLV

[13] = biological target: STAT1, endogenous in iBCBL-1 cells (human (endogenous in iBCBL-1)) (UniProt P42224); test: co-IP
[14] = biological target: STAT2, endogenous in iBCBL-1 cells (human (endogenous in iBCBL-1)) (UniProt P52630); test: proximity ligation
[15] = biological target: STAT1, endogenous in iBCBL-1 cells (human (endogenous in iBCBL-1)) (UniProt P42224); test: proximity ligation
[16] = biological target: S-peptide-tagged IFNAR1 (human) (UniProt P17181); test: co-IP
[17] = biological target: STAT1-Flag/STAT2-CBD complexes isolated by Flag IP and chitin AP from IFNβ-treated transfected 293T cells (human | human (HeLa cDNA library)) (UniProt P42224); test: pull-down; both purified
[18] = biological target: StrepII+Flag (SF)-tagged vIRF-1 (human herpesvirus 8 (HHV-8)) (UniProt F5HF68); test: co-IP

Substance: StrepII+Flag (SF)-tagged vIRF-1 (from UniProt F5HF68 1-449)
- binding [1]: binds

Substance: STAT2, endogenous in 293T cells (from UniProt P52630 1-851)
- binding [2]: binds

Substance: vIRF-1 from the 'vIRF-1 expression plasmid' coexpressed in transfected 293T cells (Figs 5A-F and 6) (from UniProt F5HF68 1-449)
- binding [3]: binds
- binding [4]: no binding
- binding [5]: binds
- binding [6]: binds
- binding [7]: binds
- binding [8]: binds
- binding [9]: binds
- binding [2]: binds

Substance: S-peptide-tagged TYK2 (from UniProt P29597 1-1187) (enzyme)
- binding [10]: binds

Substance: HHV-8 viral interferon regulatory factor 1 (vIRF-1), naturally expressed in TRExBCBL1-RTA (iBCBL-1) PEL cells (from UniProt F5HF68 1-449)
- binding [11]: binds
- binding [12]: binds
- binding [13]: binds
- binding [14]: binds
- binding [15]: binds

Substance: chitin-binding domain (CBD)-tagged STAT2 (from UniProt P52630 1-851)
- binding [16]: binds
- binding [6]: binds

Substance: GST-fused recombinant vIRF-1 (pGEX-vIRF-1) (from UniProt F5HF68 1-449)
- binding [17]: binds

Substance: chitin-binding domain (CBD)-fused STAT1 (from UniProt P42224 1-750)
- binding [18]: binds
